# The campaign covered roughly 380,000 compounds. About 4,000 (1.1%) were called active. Inconclusive results, whose numbers are uncertain, are shown with a selection of clear calls. The call rests on the fitted dose curve; in most records, active means well fitted activation curve with a large enough effect; inconclusive means small, poorly fitted or top-dose-only effect; inactive means no such curve, though single readings can be large or run the other way. Potencies beside an inconclusive call are fits to weak or partial responses and may not hold up.
# Assay: qHTS Assay to Identify Small Molecule Activators of BRCA1 Expression; further: nearly all actives have a fitted effect of over 80% in size
# Details: MCF7-BRCA1-FFLuc reporter, luminescence, 48 h; activation: at 46.1 µM (top of the series), scaled: vehicle 0%, 10 µM genistein 100% unless noted
# How it was run: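 Luminescence from a BRCA1-driven firefly luciferase in MCF7 cells was the read-out, taken 15 min after substrate addition following 48 h compound exposure at 37 °C. Data were normalized to a 10 microM genistein control and DMSO vehicle.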
# Potency means the concentration at half of the fitted maximal effect; tags describe the fitted curve by direction and shape.
Structure (SMILES),Potency,activation
CCCS(=O)(=O)N1CCN(CCN2C(=O)c3cccc4cccc(c34)C2=O)CC1,inactive,–
Cn1c(C(=O)Nc2ccc3c(c2)OCCO3)cc2sccc21,"inconclusive: 2.82 µM [activator, partial curve, poor fit]",–
CN(Cc1ccccc1)C(=O)c1[nH]cnc1C(=O)Nc1ccon1,inactive,–
O=[N+]([O-])c1cc(C(F)(F)F)ccc1NCCc1ccccn1,"inconclusive: 15.8 µM [activator, partial curve, poor fit]",–
Cc1cccc(-n2c(C)cc(C(=O)NC3CCCCC3)c2C)c1,"inconclusive: 10 µM [activator, partial curve, poor fit]",–
CC(C)C(=O)Nc1nc2cc3c(cc2s1)OCO3,"inconclusive: 3.98 µM [activator, partial curve, poor fit]",–
O=C(OCC(=O)c1ccc[nH]1)c1ccccc1,"inconclusive: 35.5 µM [activator, single point]",–
COc1ccc(-c2noc(-c3ccoc3C)n2)cc1,active: 11.2 µM,–
CCc1ccc(C(=O)c2cncc(Br)c2)cc1,"inconclusive: 11.2 µM [activator, partial curve, poor fit]",–
CCOc1ccc2oc(C(=O)NCC3CCCO3)c(C)c2c1 (stereo not drawn),active: 8.91 µM,–
CC(C)N1C(=O)CN(C2CCCCCC2)C(=O)C1c1ccccc1F (stereo not drawn),"inconclusive: 7.94 µM [activator, partial curve, poor fit]",–
Cc1cc(C)nc(N2CCC(C(=O)NCc3ccccc3F)CC2)n1,inactive,–
COC(=O)CCc1sc(Nc2ccccc2)nc1-c1ccc(OC)cc1,"inconclusive: 12.6 µM [activator, single point]",–
Fc1ccc(-c2cn3ccccc3n2)cc1,"inconclusive: 1.26 µM [activator, full curve, poor fit]",–
O=C(NCCc1ccc(Cl)cc1)c1ccc(OCC2CCCO2)cc1 (stereo not drawn),"inconclusive: 12.6 µM [activator, partial curve, poor fit]",–
CC(C)c1ccc(OCc2ccc(C(=O)N3CCCC3)o2)cc1,"inconclusive: 1.26 µM [activator, full curve, poor fit]",–
CCOC(=O)c1sc(NC(=O)c2cccs2)cc1C,"inconclusive: 1 µM [activator, full curve, poor fit]",–
Cc1cc(/C=N/NC(=O)c2cccc([N+](=O)[O-])c2)c(C)n1-c1ccccc1,active: 12.6 µM,–
CCC1(c2ccccc2)NC(=O)N(CC(=O)Nc2ccccc2N2CCCCC2)C1=O (stereo not drawn),inactive,–
COc1ccc(OCC2CCCN(Cc3nc(CC4CC4)no3)C2)cc1 (stereo not drawn),"inconclusive: 17.8 µM [activator, single point]",–
Cn1nccc1C(=O)Nc1ccc2c(c1)OCO2,active: 12.6 µM,–
Cc1[nH][nH]c(=O)c1C(c1ccc(-c2cccc(C(=O)O)c2)o1)c1c(C)[nH][nH]c1=O,"inconclusive: 11.2 µM [activator, partial curve, poor fit]",–
c1ccc(-c2noc(CN3CCOCC3)n2)cc1,"inconclusive: 22.4 µM [activator, single point]",–
CSc1ccc(-c2ccco2)nn1,"inconclusive: 7.08 µM [activator, partial curve, poor fit]",–
CCc1nnc(NC(=O)/C=C/c2ccco2)s1,active: 3.98 µM,–

Structure (SMILES),Potency,activation
COC(=O)c1ccc(NC(=O)Nc2ccc(OC)cc2)cc1,"inconclusive: 12.6 µM [activator, partial curve, poor fit]",–
CN1CCN(c2ccc(C(=O)c3ccc(F)cc3)cc2)CC1,"inconclusive: 2.51 µM [activator, full curve, poor fit]",–
CC(C)C(=O)Nc1ccc(NC(=O)c2ccccn2)cn1,active: 2.51 µM,–
CC1CCCC(NC(=O)c2ccc3c(c2)OCO3)C1C (stereo not drawn),active: 3.55 µM,–
O=C(Nc1cccc(F)c1)c1ccco1,"inconclusive: 35.5 µM [activator, single point]",–
COCc1nnc(NC(=O)c2cccc(NC(=O)C(C)C)c2)s1,"inconclusive: 31.6 µM [activator, single point]",–
COC(=O)C1=C(O)C2(C(=O)O)CC(C(=O)OC)=C(O)C(C(=O)O)(C1)C2,inactive,–
CC(C)c1ccc(/C=C/c2ccc(=O)n(C)n2)cc1,"inconclusive: 1.78 µM [activator, full curve, poor fit]",–
CC1CCc2nc(NC(=O)CN3CCOCC3)sc2C1 (stereo not drawn),"inconclusive: 12.6 µM [activator, partial curve, poor fit]",–
CCN(CCN1CCCC1)C(=O)c1cc(COc2ccccc2SC)on1,inactive,–
Cc1ccc(C)n1Cc1ccc(C(=O)O)cc1,inactive,–
Cc1cc(C)nc(NC(=O)Nc2ccc(F)cc2F)n1,active: 3.98 µM,–
Cc1coc2cc3oc(=O)c(CCC(=O)NC4CC4)c(C)c3cc12,"inconclusive: 11.2 µM [activator, partial curve, poor fit]",–
O=C(COc1ccc(F)cc1Cl)N(Cc1nnc(-c2ccccc2Cl)o1)C1CC1,inactive,–
COc1ccc(CCn2nnc3ccccc3c2=O)cc1OC,"inconclusive: 10 µM [activator, partial curve, poor fit]",–
Cc1cccc(Cc2nnc(CCC(=O)N(CC3CC3)CC3CCCO3)o2)c1 (stereo not drawn),"inconclusive: 11.2 µM [activator, partial curve, poor fit]",–
Cn1cccc1C(=O)OCc1cc(-c2ccco2)on1,"inconclusive: 5.01 µM [activator, full curve, poor fit]",–
O=C(COc1ccccc1)Nc1nnc(-c2ccc3c(c2)CCCC3)o1,"inconclusive: 22.4 µM [activator, single point]",–
O=C1c2ccccc2C(=O)c2c1cccc2N1CCOCC1,"inconclusive: 11.2 µM [activator, single point]",–
Cc1cc2c(cc1C)NC(=O)CC(c1ccccc1)=N2,active: 3.16 µM,–
CCC(Oc1ccccc1)C(=O)O/N=C(\N)c1ccc(OC)c(OC)c1 (stereo not drawn),inactive,–
Cc1cc(Br)ccc1OCc1nc(-c2cccnc2)no1,"inconclusive: 7.94 µM [activator, partial curve, poor fit]",–
CCOc1ccc(N2C(=O)c3ccccc3C2O)cc1 (stereo not drawn),active: 6.31 µM,–
N#CCC(=O)Nc1nc(-c2ccc3c(c2)OCCO3)cs1,"inconclusive: 35.5 µM [activator, single point]",–
CNc1nc(N2CCc3ccccc32)ncc1F,"inconclusive: 7.94 µM [activator, partial curve, poor fit]",–

Structure (SMILES),Potency,activation
COc1ccc2c(=O)c(C(=O)NCCc3ccccc3)c[nH]c2c1,"inconclusive: 14.1 µM [activator, partial curve, poor fit]",–
Cc1ccc(-n2nnc(-c3cnc4ccccc4c3)n2)cc1,"inconclusive: 2 µM [activator, partial curve, poor fit]",–
CSc1nc2ccc(NC(=O)c3nn(C(C)C)c(=O)c4ccccc34)cc2s1,"inconclusive: 20 µM [activator, partial curve, poor fit]",–
Cc1ccc(-n2cc(C(=O)c3ccccc3O)cn2)cc1,"inconclusive: 3.16 µM [activator, partial curve, poor fit]",–
O=C(Nc1nnc([C@@H]2C[C@H](O)[C@@H](CO)O2)s1)c1cccc2ccccc12,active: 8.91 µM,–
S=C(c1ccc(-c2ccc(Br)cc2)o1)N1CCCCC1,"inconclusive: 15.8 µM [activator, partial curve, poor fit]",–
Clc1ccc(-c2nsc(N3CCOCC3)n2)c(Cl)c1,"inconclusive: 0.631 µM [activator, full curve, poor fit]",–
CN1CCN(C(=O)c2cc(COc3ccccc3)on2)[C@@H](c2ccccc2)C1,active: 5.01 µM,–
CSc1ccc(CN2CCC(N3CC(C)OC(C)C3)CC2)cc1 (stereo not drawn),inactive,–
Cc1cccnc1NC(=O)c1ccc2c(c1)OCO2,"inconclusive: 11.2 µM [activator, partial curve, poor fit]",–
CC(=O)c1ccc(OCc2cc(C(=O)N(C)Cc3nc4c(C)cccc4[nH]3)no2)cc1,inactive,–
O=C(Cc1noc2ccccc12)Nc1ccc2ccccc2c1,"inconclusive: 17.8 µM [activator, partial curve, poor fit]",–
O=C(NC(=S)Nc1ccccc1Br)c1ccco1,active: 12.6 µM,–
O=C(Nc1ccc(N2CCCC2=O)cc1)c1cccc(F)c1,–,inconclusive: 27.1% [activator]
O=C(NC1CCCC1)C1CC(c2ccc(F)cc2)=NO1 (stereo not drawn),active: 10 µM,–
C/C(=N/NC(=O)OC(C)(C)C)c1ccco1,"inconclusive: 15.8 µM [activator, single point]",–
COc1ccc(OCc2cc(C(=O)NC(C)c3cnn(C)c3)no2)c(Cl)c1 (stereo not drawn),"inconclusive: 11.2 µM [activator, partial curve, poor fit]",–
CC1(C)Cc2c(cnn2-c2ccc(F)cc2)C(NC(=O)CCc2ccncc2)C1 (stereo not drawn),inactive,–
CCOc1ccc(Nc2nc(N)c3ccccc3n2)cc1,–,inconclusive: -47.4% [activator]
CC(C)CS(=O)(=O)C1=NN2C(=N)/C(=C\c3ccc(OC(=O)c4ccco4)cc3)C(=O)N=C2S1,inactive,–
Nc1ncnc2c(C3OC(CO)C(O)C3O)c[nH]c12 (stereo not drawn),–,inconclusive: -103% [activator]
CCOc1ccc(NC(=O)Nc2cc(C)on2)cc1,active: 7.94 µM,–
CN(C)/C=N/c1sc2c(c1C#N)CCCC2,"inconclusive: 2.51 µM [activator, partial curve, poor fit]",–

# From PubChem BioAssay AID624202 (National Center for Advancing Translational Sciences (NCATS), 2012)
